Laboratory results published in the supplement of paper PMC12217912.
Some of the results follow. Sequences were assembled here from the parent chain. Values near 0.05 are background.

B1: TEV protease; numbered along this chain (parent)
chain: MGESLFKGPRDYNPISSSICHLTNESDGHTTSLYGIGFGPFIITNKHLFRRNNGTLVVQSLHGVFKVKDTTTLQQHLVDGRDMIIIRMPKDFPPFPQKLKFREPQREERICLVTTNFQTKSMSSMVSDTSCTFPSGDGIFWKHWIQTKDGQCGSPLVSTRDGFIVGIHSASNFTNTNNYFTSVPKNFMELLTNQEAQQWVSGWRLNADSVLWGGHKVFMVKPEEPFQPVKEATQL

Variants of: B1
Experiment: raw area under fraction-flipped curve 0-4 h after induction (AUC4h, not background-subtracted), DNA-recorder readout of cleavage of the substrate (dimensionless); higher = more cleavage of the substrate by the protease variant
Conditions: temperature: 34 °C; time window: 0-4 h after rhamnose induction
Procedure: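 In vivo DNA recorder in E. coli TOP10(DE3) ΔrhaA at 34 °C. Each TEVp single-site mutant (parent TEVp 0) is paired with a single-site variant of the 7-mer TEVs (canonical ENLYFQ|S). The substrate sits between flexible linkers in a Bxb1-sfGFP-TEVs-SsrA fusion, so cleavage stabilises Bxb1 and speeds flipping of a recombination array, read by NGS. The value is the raw area under the fraction-flipped curve over 0-4 h after rhamnose induction (AUC4h), with ≥20 reads per time point. It is not background-subtracted; inactive controls average about 0.047.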
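Also: Bxb1 expression induced with 0.2% (w/v) L-rhamnose at OD600 near 0.5, cultures sampled hourly, flipped fraction per protease–substrate barcode pair counted by paired-end Illumina sequencing.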

Variant | area with substrate ENAYFQS | area with substrate ENDYFQS | area with substrate ENEYFQS | area with substrate ENFYFQS | area with substrate ENGYFQS | area with substrate ENHYFQS | area with substrate ENIYFQS | area with substrate ENMYFQS | area with substrate ENNYFQS | area with substrate ENPYFQS | area with substrate ENQYFQS | area with substrate ENSYFQS | area with substrate ENTYFQS | area with substrate ENYYFQS | area with substrate ENCYFQS | area with substrate ENKYFQS | area with substrate ENRYFQS | area with substrate ENVYFQS | area with substrate ENWYFQS
T23E | 0.0626 | 0.0632 | 0.0571 | 0.068 | 0.0559 | 0.069 | 0.111 | 0.0696 | 0.0472 | 0.0274 | 0.0569 | 0.061 | 0.0582 | 0.0647 | – | – | – | – | –
T23K | 0.055 | 0.0693 | 0.0689 | 0.0647 | 0.0531 | 0.0657 | 0.105 | – | – | 0.0591 | 0.0568 | 0.0667 | 0.0664 | – | 0.0543 | 0.0635 | 0.0613 | 0.0806 | 0.0506
S26Q | 0.0725 | 0.0531 | 0.05 | 0.055 | 0.0636 | 0.0676 | 0.0842 | 0.0661 | 0.0602 | 0.0614 | 0.0714 | 0.074 | 0.0611 | 0.074 | 0.081 | 0.0577 | 0.0521 | 0.0693 | 0.0569
S26R | 0.0527 | 0.0618 | 0.0519 | 0.0824 | 0.062 | 0.0629 | 0.0865 | 0.0687 | 0.0466 | 0.0517 | 0.0573 | 0.0589 | 0.0665 | – | – | 0.0505 | 0.072 | 0.0592 | –
D27G | 0.0495 | 0.0599 | 0.06 | 0.0684 | – | 0.0514 | 0.076 | 0.0919 | – | – | 0.0622 | 0.057 | – | – | 0.0729 | – | 0.0602 | 0.0697 | –
D27S | 0.0542 | 0.0606 | – | 0.0576 | 0.0679 | 0.0596 | – | 0.0607 | 0.06 | 0.0735 | – | 0.0596 | – | 0.049 | 0.0571 | 0.0711 | 0.0525 | 0.072 | –
G28Q | 0.0611 | 0.0591 | 0.0617 | – | – | 0.0536 | – | 0.092 | 0.0592 | – | 0.0579 | 0.053 | – | 0.0561 | 0.0715 | – | 0.0687 | 0.0915 | –
H29I | 0.0592 | – | 0.0532 | – | – | – | 0.129 | – | 0.0562 | – | 0.0636 | 0.0657 | 0.054 | 0.0597 | 0.0689 | 0.055 | – | – | 0.0593
H29M | 0.057 | 0.0662 | 0.0533 | 0.0561 | – | 0.0546 | – | 0.0856 | 0.0629 | 0.0678 | 0.0559 | – | – | 0.0561 | 0.0682 | – | 0.0602 | 0.0776 | –
H29P | 0.0677 | 0.0552 | 0.0576 | 0.0594 | – | – | – | – | 0.0623 | 0.0643 | 0.0457 | 0.062 | – | – | 0.063 | 0.057 | 0.0508 | 0.0577 | –
H29T | 0.0621 | 0.0557 | – | 0.0751 | – | 0.029 | – | 0.0966 | 0.0528 | – | 0.067 | 0.0773 | 0.0595 | – | 0.0756 | 0.0582 | – | 0.0806 | –
T30R | 0.0666 | 0.0595 | 0.0589 | 0.0663 | – | 0.0644 | 0.0862 | – | 0.0574 | – | 0.0565 | 0.0516 | – | – | 0.0512 | 0.0617 | 0.0682 | 0.0885 | 0.0362
T31V | 0.0645 | – | 0.0537 | – | 0.0538 | 0.0597 | 0.102 | 0.0558 | 0.0671 | 0.0578 | 0.0574 | 0.0661 | 0.0906 | 0.0631 | 0.0684 | 0.0566 | 0.0604 | 0.0835 | 0.0022
